Test results reported in US12240912 (AARHUS UNIVERSITET, dated 2025).

Target: T1, Human C3 (native C3) (human, UniProt P01024 23-1663)
T1 construct: Purified from outdated human plasma; The entry is given as one stretch, 23-1663; also called hC3; Nat C3
Assay: SEC (Superdex 200 increase), 1:1 molar mix

binding result: no binding
B1: IgG-Fc-hC3Nb1 (Fc fusion)
chain: [sequence of human IgG1 Fc with C220S (EU numbers) and a few adjoining residues omitted]QVQLVETGGGLVQAGGSLRLSCAASGSIFSINAMGWFRQAPGKEREFVATINRSGGRTYYADSVKGRFTISRDNGKNMVYLQMHSLKPEDTAIYYCAAGTGWSPQTDNEYNYWGQGTQVTVSS
notes: also called IgG-Fc-hC3bNb1; lgG-Fc-hC3Nb1
